According to PubChem BioAssay AID686971 (National Center for Advancing Translational Sciences (NCATS), 2013):
About 7,500 (2.1%) of roughly 360,000 compounds were called active. The inconclusive results got no clear call from the source; some entries with a clear call stand among them for comparison. Calls come from the whole dose curve; as a rule, active = well fitted cell-killing curve with a large enough effect; inconclusive = small, poorly fitted or top-dose-only effect, or effect the other way, or another doubt; inactive = no such curve, though single readings can be large or run the other way. Potencies of inconclusive entries are left out as doubtful fits.

Assay: qHTS for induction of synthetic lethality in tumor cells producing 2HG: qHTS for the HT-1080-IDH1KD cell line;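 for activity, negative = toxicity: 0% = DMSO wells and -100% = cell-free medium wells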
Settings: HT-1080 IDH1 knockdown viability, ATP luminescence, 48 h; activity, negative = toxicity: at 46.1 µM (top of the series) unless noted
In short: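 Cytotoxicity counter-line: IDH1KD HT-1080, 48 h, CellTiter-Glo. Curves classed by r2, magnitude and activity.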
Potency is the fitted concentration of half-maximal effect; tags give direction and shape of the fitted curve.

SMILES | Potency | activity, negative = toxicity
C[C@H](NC(=O)[C@@H]1CSC2c3ccccc3C(=O)N21)C(=O)NC1CCCCC1 (stereo partly drawn) | inactive | –
CC(SCc1ccccc1)C(=O)N/N=C/c1cc2c(cc1Br)OCO2 (stereo not drawn) | inactive | –
CCCc1nc2oc3c(NCCCN(C)C)ncnc3c2c2c1CCCC2 | inconclusive [cytotoxic, partial curve] | –
Cc1ccccc1OCc1nnc(SCCN2CCCC2)n1-c1ccccc1 | inconclusive [cytotoxic, partial curve] | –
CC[N+]1(CC)CC2=Cc3c(ccc4ccccc34)C(C)C2C1 (stereo not drawn) | inactive | –
OC(COc1c(Cl)cc(Cl)cc1Cl)CN1CCCCC1 (stereo not drawn) | inconclusive [cytotoxic, single point] | –
CCOC(=O)COc1ccc(S(=O)(=O)Nc2ccc(C)cc2)cc1 | inconclusive [cytotoxic, partial curve, poor fit] | –
Cc1c(C(=O)OC(C)C)[nH]c2c1C(=O)CC(C)(C)C2 | – | inconclusive: -4.39%
Cc1ccc(Nc2nc(N)nc(CCl)n2)c(C)c1 | inconclusive [cytotoxic, partial curve] | –
CN(C)S(=O)(=O)c1ccc(C(=O)NN2C(=O)NC3(CCCCC3)C2=O)cc1 | inactive | –
CS(=O)(=O)c1ncc(Cl)c(C(=O)Nc2ccc(N3CCOCC3)cc2)n1 | active: 1.58 µM | –
CCC1=Nc2cc(C(=O)NCCN3CCCC3)ccc2Sc2ccccc21 | inactive | –
Cc1cc(C)c(NC(=S)NC(=O)c2ccccc2)cc1C | inconclusive [cytotoxic, partial curve] | –
C=CCn1c(SC(F)F)nc2scc(-c3ccco3)c2c1=O | inconclusive [cytotoxic, full curve] | –
COc1cc(OC)nc(Nc2nc(C(N)Cc3ccc(F)cc3)cs2)n1 (stereo not drawn) | inconclusive [cytotoxic, single point] | –
Cc1ccc(C(=O)Nc2nc(C(N)Cc3ccc(C(F)(F)F)cc3)cs2)cc1 (stereo not drawn) | active: 16.4 µM | –
Cc1ccc(S(=O)(=O)N2CCN(c3nc(-c4ccncc4)nc4ccccc34)CC2)cc1 | inactive | –
Cc1cc(OCc2cc(C(=O)N3CCN(CC4CC4)CC3)no2)cc(C)c1Cl | inconclusive [cytotoxic, single point] | –
CCN(CC(=O)Nc1sc2c(c1C#N)CCC(C)C2)Cc1nc2ccccc2c(=O)[nH]1 (stereo not drawn) | inconclusive [cytotoxic, partial curve] | –
O=C(c1sc2ccccc2c1Cl)N(Cc1ccccc1Cl)C1CCS(=O)(=O)C1 (stereo not drawn) | inconclusive [cytotoxic, single point] | –
Cc1ccc(C)c(CSc2nnc(CCN)o2)c1 | inconclusive [cytotoxic, single point] | –
Oc1ccc(Br)cc1/C=N/NC(=S)NCCc1ccccc1 | inconclusive [cytotoxic, single point] | –
COc1ccc(NS(=O)(=O)c2cc(OC)ccc2NC(=O)c2cc(C)oc2C)cc1 | active: 5.8 µM | –
CCOc1cc(/C=C/C(=O)c2ccc(C)cc2)ccc1OCC(=O)N(C)C | inconclusive [cytotoxic, single point] | –
COCCn1c(-c2ccc(C)cc2)nc2c(c(=O)c3ccccc3n2C)c1=O | inactive | –

SMILES | Potency | activity, negative = toxicity
CCc1nc2ccc(C(=O)NCCN3CCCC3)cn2c1N(C)Cc1ccc(OC)cc1 | inconclusive [cytotoxic, single point] | –
COc1ccc(S(=O)(=O)N2CCC[C@H]2C(=O)N2CCC[C@H]2C(=O)N[C@H](C)c2ccccc2)cc1C | inactive | –
CCCC[C@@H]1Cc2[nH][nH]c(=O)c2[C@H](c2cccc3ccccc23)O1 | active: 25.9 µM | –
COc1cccc(-c2cnc3c(NC=O)cc(-c4cccc(C(=O)N(C)C)c4)cn23)c1 | inconclusive [cytotoxic, single point] | –
COc1ccc(S(=O)(=O)Cc2ccc(C(=O)N3CCN(c4cccc(C)c4)C(C)C3)o2)cc1 (stereo not drawn) | active: 11.6 µM | –
COc1cccc(C(=O)Nc2cccc(-c3ccc(N4CCOCC4)nn3)c2)c1OC | inconclusive [cytotoxic, single point] | –
O=C(NC1CC1)C1CC(=O)N(c2ccc(F)cc2)C1 (stereo not drawn) | inactive | –
Cc1cc(C(=O)NC2CCCc3c2cnn3-c2cccc(C)c2C)c(C)o1 (stereo not drawn) | inconclusive [cytotoxic, partial curve] | –
COc1ccc(NC(=O)C2Cc3c(-c4cccc(C(C)=O)c4)ccnc3O2)cc1 (stereo not drawn) | active: 1.84 µM | –
Cc1ccc(CNC(=O)C2CC2c2ccccc2)cc1 (stereo not drawn) | – | inconclusive: 30.2%
Cc1ccc(C)c(NC(=S)N/N=C2\CCc3ccccc32)c1 | inconclusive [cytotoxic, single point] | –
Cc1cc(Br)cn2c(Cc3ccsc3)c(C3CCCCC3)nc12 | inactive | –
CCCCn1nnnc1SCC(=O)NNC(=O)c1ccco1 | inactive | –
CC(=O)c1ccc(N2CCN(S(=O)(=O)c3ccc4c(c3)CC(C)N4C(C)=O)CC2)cc1 (stereo not drawn) | inconclusive [cytotoxic, partial curve] | –
CN(C)CCCN(C(=O)c1ccc(Br)s1)c1nc2cc3c(cc2s1)OCO3 | inconclusive [cytotoxic, single point] | –
CN1CCN(C2Cc3cc(F)ccc3Sc3ccc(Cl)cc32)CC1 (stereo not drawn) | inconclusive [cytotoxic, single point] | –
CCCCn1c(=O)n(Cc2cccc(F)c2)c(=O)c2c1ncn2Cc1ccco1 | inactive | –
Cc1cccc(NCC(=O)N/N=C\c2c[nH]c3ccccc23)c1 | inconclusive [cytotoxic, partial curve] | –
Cc1ccc(C(C(=O)NC(C)(C)C)N(Cc2ccccc2)C(=O)c2snc(C(N)=O)c2N)o1 (stereo not drawn) | inactive | –
N#Cc1cc(C#N)c(N2CCN(c3cccc(Cl)n3)CC2)nc1N | inconclusive [cytotoxic, single point] | –
COc1ccc(C(=O)OCCN2C(=O)c3ccccc3C2=O)cc1 | inactive | –
O=C(c1ccco1)N1CCN(c2ncnc3scc(-c4ccccc4)c23)CC1 | active: 10.3 µM | –
CC(C)(C)C(=O)Nc1ccc2c(c1)C(=O)C(=O)c1ccccc1-2 | active: 0.794 µM | –
O=C(c1cccc(F)c1)N1CCC(N2CCCCCC2)CC1 | inactive | –
Cc1ccc(Nc2nc(N)c([N+](=O)[O-])c(NCc3ccco3)n2)cc1C | inconclusive [cytotoxic, single point] | –

SMILES | Potency | activity, negative = toxicity
CS(=O)(=O)N(Cc1ccccc1)c1ccc(C(=O)N2CCN(c3cccc(Cl)c3)CC2)cc1 | inconclusive [cytotoxic, single point] | –
CCOc1ccc(-c2n[nH]c(C)c2Oc2ccccc2OC)c(O)c1 | inconclusive [cytotoxic, single point] | –
O=Cc1ccc(OCc2cccc(C(F)(F)F)c2)cc1O | inconclusive [cytotoxic, single point] | –
O=c1[nH]c(=O)n(Cc2ccco2)c2c1C(C(F)(F)F)(C(F)(F)F)N=C(CCc1ccccc1)N2 | active: 10 µM | –
COc1ccc(-c2cc(-c3cc(F)ccc3O)[nH]n2)cc1OC | inconclusive [cytotoxic, single point] | –
COc1ccc(NC(=O)c2ccccn2)cc1 | inconclusive [cytotoxic, partial curve] | –
Cc1ccccc1S(=O)(=O)Cc1ccc(C(=O)N2CCN(c3ccc(F)cc3)CC2)o1 | inactive | –
O=C(OCc1cn([C@@H]2C[C@H](c3ccc(Cl)cc3)N(C(=O)C3CCCCC3)C[C@H]2O)nn1)c1ccccc1 | inconclusive [cytotoxic, single point] | –
COc1ccc(Nc2nc3cc(C)ccc3cc2C#N)c(OC)c1 | inconclusive [cytotoxic, single point] | –
CC1CC(=O)Nc2ccccc2N1C(=O)CSc1ccc2ccccc2n1 (stereo not drawn) | inactive | –
CCn1c(SCC(=O)Nc2ccc(F)cc2)nnc1-c1cnccn1 | inactive | –
N#C/C(=C\c1cccc(Br)c1)C(=O)N1CCCCC1 | active: 16.4 µM | –
S=C(NN=Cc1ccccn1)Nc1ccccn1 | inconclusive [cytotoxic, single point] | –
CCN(CC)CCNC(=O)c1cc(-c2ccc(Br)s2)nc2ccccc12 | inconclusive [cytotoxic, partial curve] | –
Oc1ccc(N2CCN(C(=S)NCc3ccccc3)CC2)cc1 | active: 16.4 µM | –
CCN1CCCC1CN(Cc1cc2ccc(C)cc2[nH]c1=O)C(=S)Nc1ccc(OC)cc1OC (stereo not drawn) | inconclusive [cytotoxic, single point] | –
Cc1cccc(C(=O)O/N=C(\N)c2ccccn2)c1 | inconclusive [cytotoxic, single point] | –
CCNC(=S)NNC(=O)CCc1nc2cc(Cl)ccc2n(Cc2ccccc2)c1=O | – | inconclusive: -12.1% [cytotoxic]
Cc1cc2[nH]c3c(c[n+](C)c4ccccc34)c2cc1C | active: 20.6 µM | –
Nc1nc(-c2ccccc2)cs1 | inconclusive [rising, partial curve, poor fit] | –
COc1ccc(-c2cc(-c3cccs3)nc(OC)c2C#N)cc1OC | inconclusive [cytotoxic, single point] | –
Cc1cc(C)c(C(CC(=O)c2cccs2)C(C#N)C#N)c(C)c1 (stereo not drawn) | inconclusive [cytotoxic, single point] | –
Cc1ccc(/C=C(/NC(=O)c2ccccc2)C(=O)NC(Cc2c[nH]c3ccccc23)C(=O)O)cc1 (stereo not drawn) | inactive | –
